The source gives no read counts; variants with many changes may rest on few reads.
B1: LINE1-mini (parent)
chain: GGCAGAGCUCAACACAGCGUGGCAAAGUGGCUGUGGCUAGACUGCC

Variants of: B1
Test: self-cleavage, relative activity (ratio to wild type); higher = more cleavage; in vitro, sequencing; the parent is a self-cleaving ribozyme

Variant | self-cleavage
A4U G21A G44A C46U | 0.06
A4U G5C A6U | 0.06
C3G G30A C31U | 0.05
A11G C23U U28G C42A | 0
C23A A25U G44A | 0.72
A16C C31U G33A U34G | 0
G5C U9G G19A U20A | 0.42
G17A C23A U34G G44C | 0
U9G C10U C18G U20C A24U G30C | 0.15
G2U G7U G19C G36C C45G | 0.02
C3U A6U A25C G36C C45A | 0.02
C18U G30A G40U | 0.13
A4G C10A A12C | 0.1
G1U C3A G21U C31A C42A | 0.33
G5A A6C G29A C42A | 0.02
C3G G17U G40C | 0.07
C13U A14C G27A | 0.04
G5A C15A G17A A24G G29U C42U | 0.03
G2C G5C A16C | 0.01
C18U G35C G40U | 0.03
U20G C23U A25C C37U | 0.01
C8A G21A G40A | 0.27
A11G C31A G35U | 0.03
C8G C13U G21C | 0.11

Variant | self-cleavage
G7A G29A G44A | 0.07
G2U U38A G40A G44U | 0.02
A25U U34G C42G | 0.01
G19U C37U C46A | 0.03
A11G C31U U32C G36A G40A | 0
G5A C10G G19C A41G C42U | 0.01
C10A A14C C18G A25G C42U | 0
A16C U20C G40A | 0.04
G1A C10A A24U | 0.04
G5U C23A U38G | 0.01
U9C G19C A39G | 0
A6U U34A C45U | 0.4
G1U G17A C31A C45U C46U | 0.05
U20C C23U U32A | 0.06
A16C U34A C42A | 0.03
A4U A11U A16U C18G C31A A41C G44U | 0.01
G2A C31U G44A | 0.11
G1U C10A A11G U32G | 0.02
C8U G19C C23U A24G G40C C46G | 0.05
G1U G5A C15A | 0.14
C13G A26G G29U | 0.12
A4C A6G C31U G36C C42G | 0.01
G1A C10U G21U | 0.42
C10U A14C C46A | 0.08

Variant | self-cleavage
C3A G35U G40A | 0.21
G1U A16U G35U G36C | 0.01
A11C C18A C37G | 0.01
G1A C10U G21C A25C | 1.39
C3G G22U A41U | 0.48
A11U G27U A41U U43A | 0.02
A4U G7C C13A C15G G30C G40U | 0.11
G22U A39U G40U | 0.37
G17A G22C A25C G27C G33C U38G A39C | 0.01
C3A A26U C37A | 0.56
A26C G33C G35U | 0.02
C10A G17A G22U U28A G35C G40A | 0.02
C18A A24C C45G | 0.02
G7U C13A G30A | 0.13
C8A A16C G36C | 0.19
G1A G19A C23A U34G A39C C46U | 0.02
A16G G19U G29U | 0.64
G7A A14U C15U G29U C31A | 0.03
G22U G36A U43C | 0.34
C3G A4C C23A C37A | 0.04
G29C G33C C42U | 0.11
A16G A26C C31A U32G | 0.01
G1A G2C A12U U34G | 0.05
A12U C18A C23A G40A | 0.01

Variant | self-cleavage
A16C G22A G33C | 0.05
A25U C42G C45G | 0.03
G5C A12C C37U C42U | 0
C13G U28G U34C C46U | 0.04
A6C C8U C15G C42U | 0.01
A26G G35A U43A | 0.06
G2U G21A G35A | 0.11
A26U C37U U43A | 0.02
G7C G17U U38C C46U | 0.04
G19A G21U G36C | 0.45
U9G G22U G40U | 0.01
G1C G5C A26U G40A | 0.03
A4U U9A C13A C42A | 0.2
C13G G17C G19A C23A | 0.13
G22C G36U G44U | 0.13
A26U U43G G44A | 0.22
G7A A25G C31A | 0.09
C3U A12U G36A U43A C45U | 0.09
A26U G27A U38C A41C | 0.04
A4U C15G U34G | 0
G1U C23A U32G U38A | 0.04
G17U C23A G33C G36U | 0.03
G7A A26U U43C | 0.08
U20A C31U G33A C46U | 0.03

Variant | self-cleavage
C8G G17C A24C | 0.02
A6U A16U G21A A41U | 0.2
G7U U32G U38G G44C | 0.01
A12G U28A G29C | 0.01
G2C G17A G29A G40A | 0.04
A6U A11U G17C C46U | 0.05
C10A C15G A24G G29U | 0.02
C10U G17A U43A | 0.15
G1C A6C C8G U9C U43A | 0.01
C8A U20G C23A A25C U28G C42U C45G C46G | 0.02
A6G A25G U34A C37A U38C U43C C46A | 0
C3U U9G A12G G21U | 0.07
G7A G21U G27U C37A | 0.13
A4C G19U U20A G22C | 0.06
U9G A12U C15U G22U A24G G27C U32C C37U | 0.02
C10G C31G U38G U43G C45G | 0
C8A G36C U38A U43G C45U | 0.27
U9G G22U C23A G33U | 0.15
C13U G22U C37U A41U | 0.13
A25U G40C U43A | 0.01
U28A G30A G36U | 0.09
G1C G5C G17A C23U | 0.02
G22U C23U C37U G44C | 0.01
A4U U20C U28A | 0.19

Variant | self-cleavage
C10U C37G C45G | 0.02
C8U G27C G29U A39C | 0.02
C3G C8A G17U G22C C37A | 0.01
G1U C10U A24C | 0.13
G19U G27U G40C C45A | 0.01
C10G C31G G36C | 0.01
G35U G40U C42U | 0.59
C3U G21U G33C A39G | 0.02
C3A G5U G35U | 0.13
G22A U32A C45U | 0.47
C8A U9A G21A G44U | 0.68
A4G G35A C45G | 0.57
G2C G5U C10A G27U | 0.01
C3A G22U C45A | 0.36
C10U G35U G40A | 0.03
C8A C15U U38A | 0.52
C8G C13U C42G | 0.04
G2C G7A G22U G44C C46U | 0.16
C13U G29A U43A | 0.06
C8G G21C G29U G36A A39G | 0.01
C10A A12C A14C G33A | 0.01
G5C A14G A16C C42A | 0.01
U9A G33C U38C C45A | 0
A6G U32C G36A C37A | 0.02

Variant | self-cleavage
A11U C23U G33C | 0.01
G1A G2U C8A G19A U28G U43C | 0.07
G2A C8U C23A | 0.33
G1C A6C C8G U9C U28A U32A G40U | 0.01
C8G A16G G22A C23U C42U | 0.07
G7U G27A A39U | 0.09
G2C C10U A16G U34C | 0.04
C8G C15U A25G | 0.15
G1U A6G A16U G19A A25G G27U G30A | 0.01
C23U A39G C46U | 0.13
C3U G5U U9G | 0.47
A6G G21A U34A | 0
G19U G33U C37U | 0.05
A6G U9G A39U G40C | 0.02
C3U G22C C31G C42U | 0.18
A14G C23U U28C | 0.56
G2U A16G A26C C37A | 0.18
U9C G29U U34G | 0.01
C15U G29U U32G | 0.03
U9G U28A G29A | 0.05
A4U U34C C37G | 0.02
A25C G29C C46U | 0.02
G7U G27A G29C U43A | 0.03
